# Measurements: PubChem BioAssay AID485364 (National Center for Advancing Translational Sciences (NCATS), 2010)
# About 11,000 (3.1%) of roughly 360,000 compounds were called active. Inconclusive means that the source gave no clear call. Such entries were picked first, then a sample of the others. The call rests on the fitted dose curve; in most records, active means well fitted inhibition curve with a large enough effect; inconclusive means small, poorly fitted or top-dose-only effect; inactive means no such curve, though single readings can be large or run the other way. Potencies of inconclusive entries are left out as doubtful fits.
# Molecular target: Schistosoma mansoni thioredoxin glutathione reductase (TGR) (UniProt Q962Y6)
# Assay: qHTS Assay for the Inhibitors of Schistosoma Mansoni Peroxiredoxins; further: nearly all actives have a fitted effect of over 60% in size
# Details: purified TGR, DTNB reduction, TNB absorbance 405 nm; series mostly up to 114 µM
# In short: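 First, TGR (20 nM dispensed) and NADPH were mixed with compound. Second, a 15 min room-temperature incubation followed. Third, further NADPH and then DTNB were added to start the reaction. Finally, TNB absorbance was monitored kinetically.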
# Potency means the concentration at half of the fitted maximal effect; tags describe the fitted curve by direction and shape.
row,SMILES,Potency
1,C[C@@H](C(=O)OCn1nnc2ccccc2c1=O)N1C(=O)C2CCCCC2C1=O (stereo partly specified),"inconclusive [inhibitor, full curve, poor fit]"
2,CCS(=O)(=O)n1nc(-c2ccccc2)nc1N,"inconclusive [inhibitor, partial curve]"
3,O=c1cc(O)n(-c2ccc(F)cc2)c(=S)[nH]1,"inconclusive [inhibitor, full curve]"
4,Cc1cc(F)ccc1NC(=O)CCS(=O)(=O)c1cccc2nsnc12,"inconclusive [inhibitor, partial curve]"
5,COc1ccc(/C=C/C(=O)N2CCC(C(N)=O)CC2)cc1S(=O)(=O)N1CCOCC1,inactive
6,O=C(Nc1cccc(-c2nnc(-c3ccco3)o2)c1)C(c1ccccc1)c1ccccc1,inactive
7,COc1ccc(OC)c(NC(=O)CSc2sc3c(O)cc(=O)[nH]c3c2C#N)c1,"inconclusive [inhibitor, full curve]"
8,Cc1scc(C(=O)N/N=C/c2ccco2)c1C,"inconclusive [inhibitor, partial curve]"
9,COc1ccc(OCCC(=O)c2ccc(OC)cc2)cc1,active: 1.78 µM
10,O=C(N/N=C/c1ccc2cccc(OCc3ccccc3)c2n1)c1ccc(Cl)cc1,inactive
11,CCOC(=O)c1[nH]c2ccc(OC)cc2c1NC(=O)c1cccc(OC)c1,inactive
12,Cc1ccc(CS(=O)Cc2ccc(C(=O)NC3CCCC(C)C3C)o2)cc1 (stereo unspecified),active: 35.5 µM
13,O=[N+]([O-])c1cc(Cl)cc(/C=N/Nc2nc3ccccc3s2)c1O,inactive
14,Cc1ccc(NC(=O)CSc2nc3c(c(=O)[nH]2)CN(Cc2ccccc2)CC3)cc1Cl,inactive
15,N#CCCn1cc(C(CC(=O)c2ccc(Br)cc2)C(=O)O)c2ccccc21 (stereo unspecified),"inconclusive [inhibitor, partial curve]"
16,CCN(CC)c1ccc(NC(=O)COC(=O)/C=C/c2nc3ccccc3s2)cc1,inactive
17,COc1ccc(C(=O)CCN2CCc3cc(OC)c(OC)cc3C2)cc1,"inconclusive [inhibitor, full curve, poor fit]"
18,CCCCn1c(NC(=O)c2ccco2)c(C(=O)OCC)c2nc3ccccc3nc21,active: 25.1 µM
19,O=C(NCc1ccco1)c1cc(-c2ccccn2)nc2ccccc12,"inconclusive [inhibitor, partial curve]"
20,CCOC(=O)CSC1=C(C#N)C(c2ccccc2)C(C(C)=O)=C(C)N1 (stereo unspecified),"inconclusive [inhibitor, partial curve]"
21,COc1ccc(-c2nc(CS(=O)CC(=O)NCc3ccc(Cl)cc3)c(C)o2)cc1OC (stereo unspecified),active: 44.7 µM
22,CC(C)Cn1c(CCC(=O)O)ccc1-c1cccs1,active: 22.4 µM
23,Cn1c(-c2ccc(F)cc2)cnc1NCc1ccccc1F,"inconclusive [inhibitor, partial curve, poor fit]"
24,CCOc1cc(C=C2C(=O)NC(=O)NC2=O)ccc1OS(=O)(=O)c1ccccc1,active: 22.4 µM

row,SMILES,Potency
1,O=C(CCSc1ccc(Cl)cc1)N1CCN(c2ccc(O)cc2)CC1,"inconclusive [inhibitor, full curve, poor fit]"
2,CC(C)C(c1nnnn1Cc1ccco1)N1CCC(C(N)=O)CC1 (stereo unspecified),active: 44.7 µM
3,COc1ccc(-n2c(COc3ccccc3)nnc2SCc2ccc(C#N)cc2)cc1,"inconclusive [inhibitor, partial curve, poor fit]"
4,COc1ccc(CCNC(=O)C(=O)NCC(c2ccco2)S(=O)(=O)c2ccccc2)cc1OC (stereo unspecified),active: 12.6 µM
5,COc1ccc(CCNC(=O)CS(=O)Cc2nc(-c3ccc(C)cc3)oc2C)c(OC)c1 (stereo unspecified),"inconclusive [inhibitor, partial curve]"
6,CN(Cc1cn(C)nc1-c1cccc(Cl)c1)C1CCOCC1,"inconclusive [inhibitor, partial curve]"
7,Fc1ccccc1CSc1nnc(-c2cnccn2)n1Cc1ccco1,inactive
8,O=C(NC1CCCC1)C(=O)N(Cc1cccnc1)C(C(=O)NCc1ccco1)c1ccccc1F (stereo unspecified),"inconclusive [inhibitor, partial curve]"
9,COC(=O)[C@@H]1C[C@H]2CC[C@H](O)C[C@H]2N1Cc1ccc(Cl)cc1,"inconclusive [inhibitor, partial curve]"
10,O=C(NN1C(=O)C2C(C1=O)C1C=CC2C12CC2)c1ccccc1Cl (stereo unspecified),"inconclusive [inhibitor, partial curve, poor fit]"
11,CCOCC(=O)Nc1nc2ccc(OCC)cc2s1,"inconclusive [inhibitor, partial curve]"
12,O=C(NCCc1ccccc1Cl)C1CCN(S(=O)(=O)c2cccs2)CC1,"inconclusive [inhibitor, single point]"
13,CCCCCCCNC(=O)C1(CC2CC(c3ccc(Cl)cc3)=NO2)CCNCC1 (stereo unspecified),active: 39.8 µM
14,Cc1c(C(=O)N(C)c2cccc(C(F)(F)F)c2)sc2nc3n(c(=O)c12)CCCCC3,active: 10 µM
15,CCOC(=O)CSc1nc2c(sc3ccc([N+](=O)[O-])cc32)c(=O)n1Cc1ccco1,"inconclusive [inhibitor, partial curve]"
16,CCc1ccc(NC(=O)CCc2nc3sc4c(c3c(=O)[nH]2)CCCC4)cc1,inactive
17,Cc1ccc(C)c(/C=C/C(=O)c2ccccc(=O)c2O)c1,active: 12.6 µM
18,CCOc1cccc(N2C(=O)/C(=C/c3ccco3)C(=O)NC2=S)c1,"inconclusive [inhibitor, full curve]"
19,CCN(CC)S(=O)(=O)c1ccc(C(=O)N=c2sc3cccc(OC)c3n2C)cc1,inactive
20,O=C(c1ccco1)N1CCN(C(=O)c2sccc2-c2ccccc2)CC1,active: 39.8 µM
21,Cc1ccc(S(=O)(=O)c2nc(-c3ccc(Cl)cc3)oc2N2CCCCCC2)cc1,active: 39.8 µM
22,COc1ccc(C2=NCCn3nc4cc(C(F)(F)F)ccc4c32)cc1,"inconclusive [inhibitor, partial curve]"
23,COc1ccc(C(=O)NNC(=S)NC(=O)c2ccco2)cc1,inactive
24,COc1ccc(NC(=O)C2=C(C)Nc3nc(SCc4ccccc4)nn3C2c2cc(OC)ccc2OC)cc1 (stereo unspecified),"inconclusive [inhibitor, single point]"

row,SMILES,Potency
1,COCCNc1nnc(Cc2ccc(Cl)cc2)c(=O)[nH]1,"inconclusive [inhibitor, single point]"
2,N[C@@H](Cc1ccc(N(CCCl)CCCl)cc1)C(=O)O,active: 14.1 µM
3,CCCCC12CN3CC(C)(CN(C1)C3c1ccc([N+](=O)[O-])o1)C2=O (stereo unspecified),"inconclusive [inhibitor, partial curve]"
4,CC(/C=N/NC(=O)Cc1cccs1)=C\c1ccco1,"inconclusive [inhibitor, partial curve]"
5,c1ccc(OCCSc2nnnn2C2CCCCC2)cc1,"inconclusive [inhibitor, full curve, poor fit]"
6,COc1ccc([N+](=O)[O-])cc1NC(=O)CSc1nc(C)cc(C)n1,"inconclusive [inhibitor, partial curve]"
7,CCN(CC)S(=O)(=O)c1ccc2c(c1)NC(=O)C1CCCN21 (stereo unspecified),"inconclusive [inhibitor, partial curve]"
8,Cc1ccc(S(=O)(=O)NC(=NC2CCCCC2)c2ccccc2)cc1,inactive
9,O=C(CSc1nnc(-c2ccncc2)n1Cc1ccco1)Nc1nc(-c2ccccc2)cs1,"inconclusive [inhibitor, full curve, poor fit]"
10,CN1C(=O)C(=Cc2ccccc2OS(=O)(=O)c2ccccc2)C(=O)N(C)C1=O,"inconclusive [inhibitor, partial curve]"
11,Cc1ccccc1Nc1nc(-c2sc(NC(=O)c3ccco3)nc2C)cs1,"inconclusive [inhibitor, partial curve]"
12,O=C(Nc1cccc(-c2cccc(Cl)c2)c1)C1CCN(Cc2ccccn2)CC1,"inconclusive [inhibitor, full curve, poor fit]"
13,O=C(Nc1ccc(S(=O)(=O)Nc2ncccn2)cc1)c1cccc(Br)c1,"inconclusive [inhibitor, full curve, poor fit]"
14,COc1ccc(NC(=S)Nc2cccc(S(=O)(=O)N3CCCCC3)c2)cc1,active: 35.5 µM
15,COCC1CCN(C(=O)CCc2nnc(C3(c4ccc(Cl)cc4)CCC3)o2)CC1,inactive
16,CCn1c(SCC(=O)N/N=C/C(C)=C\c2ccco2)nnc1-c1ccccc1,"inconclusive [inhibitor, partial curve]"
17,Cc1ccccc1Nc1c2c(nc3nncn13)CCC2,"inconclusive [inhibitor, partial curve]"
18,COc1ccc(SCCN2CC[C@@H](C(C)(C)C)CCC2=O)cc1,inactive
19,CC(C)CNC(=S)Nc1ccc(S(N)(=O)=O)cc1,"inconclusive [inhibitor, partial curve]"
20,COc1ccnc(-n2cccc2C=O)c1C#N,"inconclusive [inhibitor, single point]"
21,COc1ccc(NC(=O)CSC2=C(C#N)C(c3ccco3)C3=C(CCCC3=O)N2)c(OC)c1 (stereo unspecified),"inconclusive [inhibitor, full curve]"
22,O=S(=O)(c1ccc(Cl)cc1)N1CCN(C(=S)Nc2ccc(F)c(Cl)c2)CC1,inactive
23,COc1ccccc1N1CCN(C(=O)c2cn(Cc3ccccc3)nc2-c2cccnc2)CC1,"inconclusive [inhibitor, partial curve]"
